# The list shows a part of the results.
# B1: WGA (Triticum vulgare) (protein)
# chain: QRCGEQGSNMECPNNLCCSQYGYCGMGGDYCGKGCQNGACWTSKRCGSQAGGATCPNNHCCSQYGHCGFGAEYCGAGCQGGPCRADIKCGSQSGGKLCPNNLCCSQWGFCGLGSEFCGGGCQSGACSTDKPCGKDAGGRVCTNNYCCSKWGSCGIGPGYCGAGCQSGGCDAVFAGAITANSTLLAE
# Tests used:
# Test in all cases: glycan array binding signal (z-score within array); higher = stronger binding
# Settings in all cases: glycan notation: IUPAC condensed, linker removed
# [1] = target: Gal(b1-3)[Neu5Ac(a2-6)]GlcNAc(b1-4)Gal(b1-4)Glc
# Summary of the method: (§1)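 The Consortium for Functional Glycomics database supplied 3228 glycan arrays, of which those lacking an available protein sequence were dropped. The binding signal, a within-array Z-score, was averaged across arrays of the same protein sequence and across linkers. Negative scores can be read as non-binding.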
# [2] = target: Gal(b1-3)[Neu5Ac(a2-6)]GlcNAc(b1-6)Gal(b1-4)Glc
# Summary of the method: as §1
# [3] = target: Gal(b1-3)[Neu5Ac(b2-6)]GalNAc
# Summary of the method: as §1
# [4] = target: Gal(b1-4)Gal
# Summary of the method: as §1
# [5] = target: Gal(b1-4)GalNAc(a1-3)[Fuc(a1-2)]Gal(b1-4)GlcNAc
# Summary of the method: as §1
# [6] = target: Gal(b1-4)GalNAc(b1-3)[Fuc(a1-2)]Gal(b1-4)GlcNAc
# Summary of the method: as §1
# [7] = target: Gal(b1-4)Glc
# Summary of the method: as §1
# [8] = target: Gal(b1-4)Glc6S
# Summary of the method: as §1
# [9] = target: Gal(b1-4)GlcNAc
# Summary of the method: as §1
# [10] = target: Gal(b1-4)GlcNAc(a1-6)Gal(b1-4)GlcNAc
# Summary of the method: as §1
# [11] = target: Gal(b1-4)GlcNAc(b1-2)Man
# Summary of the method: as §1
# [12] = target: Gal(b1-4)GlcNAc(b1-2)Man(a1-3)Man(b1-4)GlcNAc(b1-4)GlcNAc
# Summary of the method: as §1
# [13] = target: Gal(b1-4)GlcNAc(b1-2)Man(a1-3)[Gal(b1-4)GlcNAc(b1-2)Man(a1-6)]Man(b1-4)GlcNAc(b1-4)GlcNAc
# Summary of the method: as §1
# [14] = target: Gal(b1-4)GlcNAc(b1-2)Man(a1-3)[Gal(b1-4)GlcNAc(b1-2)Man(a1-6)]Man(b1-4)GlcNAc(b1-4)[Fuc(a1-6)]GlcNAc
# Summary of the method: as §1
# [15] = target: Gal(b1-4)GlcNAc(b1-2)Man(a1-3)[Gal(b1-4)GlcNAc(b1-2)Man(a1-6)][Gal(b1-4)GlcNAc(b1-4)]Man(b1-4)GlcNAc(b1-4)[Fuc(a1-6)]GlcNAc
# Summary of the method: as §1
# [16] = target: Gal(b1-4)GlcNAc(b1-2)Man(a1-3)[Gal(b1-4)GlcNAc(b1-2)Man(a1-6)][GlcNAc(b1-4)]Man(b1-4)GlcNAc(b1-4)[Fuc(a1-6)]GlcNAc
# Summary of the method: as §1
# [17] = target: Gal(b1-4)GlcNAc(b1-2)Man(a1-3)[GlcNAc(b1-2)Man(a1-6)]Man(b1-4)GlcNAc(b1-4)GlcNAc
# Summary of the method: as §1
# [18] = target: Gal(b1-4)GlcNAc(b1-2)Man(a1-3)[GlcNAc(b1-4)][Gal(b1-4)GlcNAc(b1-2)Man(a1-6)]Man(b1-4)GlcNAc(b1-4)GlcNAc
# Summary of the method: as §1
# [19] = target: Gal(b1-4)GlcNAc(b1-2)Man(a1-3)[Man(a1-6)]Man(b1-4)GlcNAc(b1-4)GlcNAc
# Summary of the method: as §1
# [20] = target: Gal(b1-4)GlcNAc(b1-2)Man(a1-6)Man(b1-4)GlcNAc(b1-4)GlcNAc
# Summary of the method: as §1
# [21] = target: Gal(b1-4)GlcNAc(b1-2)Man(a1-6)[GlcNAc(b1-2)Man(a1-3)]Man(b1-4)GlcNAc(b1-4)GlcNAc
# Summary of the method: as §1
# [22] = target: Gal(b1-4)GlcNAc(b1-2)Man(a1-6)[Man(a1-3)]Man(b1-4)GlcNAc(b1-4)GlcNAc
# Summary of the method: as §1
# [23] = target: Gal(b1-4)GlcNAc(b1-2)[Gal(b1-4)GlcNAc(b1-4)]Man(a1-3)[Gal(b1-4)GlcNAc(b1-2)Man(a1-6)]Man(b1-4)GlcNAc(b1-4)GlcNAc
# Summary of the method: as §1
# [24] = target: Gal(b1-4)GlcNAc(b1-2)[Gal(b1-4)GlcNAc(b1-4)]Man(a1-3)[Gal(b1-4)GlcNAc(b1-2)[Gal(b1-4)GlcNAc(b1-6)]Man(a1-6)]Man(b1-4)GlcNAc(b1-4)GlcNAc
# Summary of the method: as §1
# [25] = target: Gal(b1-4)GlcNAc(b1-2)[Gal(b1-4)GlcNAc(b1-4)]Man(a1-3)[GlcNAc(b1-4)][Gal(b1-4)GlcNAc(b1-2)Man(a1-6)]Man(b1-4)GlcNAc(b1-4)GlcNAc
# Summary of the method: as §1
# [26] = target: Gal(b1-4)GlcNAc(b1-2)[Gal(b1-4)GlcNAc(b1-4)]Man(a1-3)[GlcNAc(b1-4)][Gal(b1-4)GlcNAc(b1-2)[Gal(b1-4)GlcNAc(b1-6)]Man(a1-6)]Man(b1-4)GlcNAc(b1-4)GlcNAc
# Summary of the method: as §1
# [27] = target: Gal(b1-4)GlcNAc(b1-2)[Gal(b1-4)GlcNAc(b1-6)]Man(a1-6)[Gal(b1-4)GlcNAc(b1-2)Man(a1-3)]Man(b1-4)GlcNAc(b1-4)GlcNAc
# Summary of the method: as §1
# [28] = target: Gal(b1-4)GlcNAc(b1-2)[Gal(b1-4)GlcNAc(b1-6)]Man(a1-6)[Gal(b1-4)GlcNAc(b1-2)Man(a1-3)]Man(b1-4)GlcNAc(b1-4)[Fuc(a1-6)]GlcNAc
# Summary of the method: as §1
# [29] = target: Gal(b1-4)GlcNAc(b1-2)[Gal(b1-4)GlcNAc(b1-6)]Man(a1-6)[GlcNAc(b1-4)][Gal(b1-4)GlcNAc(b1-2)Man(a1-3)]Man(b1-4)GlcNAc(b1-4)GlcNAc
# Summary of the method: as §1
# [30] = target: Gal(b1-4)GlcNAc(b1-2)[Gal(b1-4)GlcNAc(b1-6)]Man(a1-6)[GlcNAc(b1-4)][Gal(b1-4)GlcNAc(b1-2)[Gal(b1-4)GlcNAc(b1-4)]Man(a1-3)]Man(b1-4)GlcNAc(b1-4)[Fuc(a1-6)]GlcNAc
# Summary of the method: as §1
# [31] = target: Gal(b1-4)GlcNAc(b1-3)Gal(b1-3)GalNAc
# Summary of the method: as §1
# [32] = target: Gal(b1-4)GlcNAc(b1-3)Gal(b1-3)GlcNAc
# Summary of the method: as §1
# [33] = target: Gal(b1-4)GlcNAc(b1-3)Gal(b1-4)Glc
# Summary of the method: as §1
# [34] = target: Gal(b1-4)GlcNAc(b1-3)Gal(b1-4)GlcNAc
# Summary of the method: as §1
# [35] = target: Gal(b1-4)GlcNAc(b1-3)Gal(b1-4)GlcNAc(b1-2)Man(a1-3)[Gal(b1-4)GlcNAc(b1-3)Gal(b1-4)GlcNAc(b1-2)Man(a1-6)]Man(b1-4)GlcNAc(b1-4)GlcNAc
# Summary of the method: as §1
# [36] = target: Gal(b1-4)GlcNAc(b1-3)Gal(b1-4)GlcNAc(b1-2)Man(a1-3)[Gal(b1-4)GlcNAc(b1-3)Gal(b1-4)GlcNAc(b1-2)Man(a1-6)]Man(b1-4)GlcNAc(b1-4)[Fuc(a1-6)]GlcNAc
# Summary of the method: as §1
# [37] = target: Gal(b1-4)GlcNAc(b1-3)Gal(b1-4)GlcNAc(b1-2)[Gal(b1-4)GlcNAc(b1-3)Gal(b1-4)GlcNAc(b1-6)]Man(a1-6)[Gal(b1-4)GlcNAc(b1-3)Gal(b1-4)GlcNAc(b1-2)Man(a1-3)]Man(b1-4)GlcNAc(b1-4)GlcNAc
# Summary of the method: as §1
# [38] = target: Gal(b1-4)GlcNAc(b1-3)Gal(b1-4)GlcNAc(b1-2)[Gal(b1-4)GlcNAc(b1-3)Gal(b1-4)GlcNAc(b1-6)]Man(a1-6)[Gal(b1-4)GlcNAc(b1-3)Gal(b1-4)GlcNAc(b1-2)Man(a1-3)]Man(b1-4)GlcNAc(b1-4)[Fuc(a1-6)]GlcNAc
# Summary of the method: as §1
# [39] = target: Gal(b1-4)GlcNAc(b1-3)Gal(b1-4)GlcNAc(b1-3)Gal(b1-4)GlcNAc
# Summary of the method: as §1
# [40] = target: Gal(b1-4)GlcNAc(b1-3)Gal(b1-4)GlcNAc(b1-3)Gal(b1-4)GlcNAc(b1-2)Man(a1-3)[Gal(b1-4)GlcNAc(b1-3)Gal(b1-4)GlcNAc(b1-3)Gal(b1-4)GlcNAc(b1-2)Man(a1-6)]Man(b1-4)GlcNAc(b1-4)GlcNAc
# Summary of the method: as §1
# [41] = target: Gal(b1-4)GlcNAc(b1-3)Gal(b1-4)GlcNAc(b1-3)Gal(b1-4)GlcNAc(b1-2)Man(a1-3)[Gal(b1-4)GlcNAc(b1-3)Gal(b1-4)GlcNAc(b1-3)Gal(b1-4)GlcNAc(b1-2)Man(a1-6)]Man(b1-4)GlcNAc(b1-4)[Fuc(a1-6)]GlcNAc
# Summary of the method: as §1
# [42] = target: Gal(b1-4)GlcNAc(b1-3)Gal(b1-4)GlcNAc(b1-3)Gal(b1-4)GlcNAc(b1-2)[Gal(b1-4)GlcNAc(b1-3)Gal(b1-4)GlcNAc(b1-3)Gal(b1-4)GlcNAc(b1-6)]Man(a1-6)[Gal(b1-4)GlcNAc(b1-3)Gal(b1-4)GlcNAc(b1-3)Gal(b1-4)GlcNAc(b1-2)Man(a1-3)]Man(b1-4)GlcNAc(b1-4)[Fuc(a1-6)]GlcNAc
# Summary of the method: as §1
# [43] = target: Gal(b1-4)GlcNAc(b1-3)Gal(b1-4)GlcNAc(b1-3)Gal(b1-4)GlcNAc(b1-3)Gal(b1-4)GlcNAc(b1-2)Man(a1-3)[Gal(b1-4)GlcNAc(b1-3)Gal(b1-4)GlcNAc(b1-3)Gal(b1-4)GlcNAc(b1-3)Gal(b1-4)GlcNAc(b1-2)Man(a1-6)]Man(b1-4)GlcNAc(b1-4)GlcNAc
# Summary of the method: as §1
# [44] = target: Gal(b1-4)GlcNAc(b1-3)Gal(b1-4)GlcNAc(b1-3)Gal(b1-4)GlcNAc(b1-3)Gal(b1-4)GlcNAc(b1-2)Man(a1-3)[Gal(b1-4)GlcNAc(b1-3)Gal(b1-4)GlcNAc(b1-3)Gal(b1-4)GlcNAc(b1-3)Gal(b1-4)GlcNAc(b1-2)Man(a1-6)]Man(b1-4)GlcNAc(b1-4)[Fuc(a1-6)]GlcNAc
# Summary of the method: as §1
# [45] = target: Gal(b1-4)GlcNAc(b1-3)Gal(b1-4)GlcNAc(b1-3)Gal(b1-4)GlcNAc(b1-3)Gal(b1-4)GlcNAc(b1-2)[Gal(b1-4)GlcNAc(b1-3)Gal(b1-4)GlcNAc(b1-3)Gal(b1-4)GlcNAc(b1-3)Gal(b1-4)GlcNAc(b1-6)]Man(a1-6)[Gal(b1-4)GlcNAc(b1-3)Gal(b1-4)GlcNAc(b1-3)Gal(b1-4)GlcNAc(b1-3)Gal(b1-4)GlcNAc(b1-2)Man(a1-3)]Man(b1-4)GlcNAc(b1-4)[Fuc(a1-6)]GlcNAc
# Summary of the method: as §1
binder,measurement,setting,value
B1,glycan array binding signal (z-score),[1],-0.354
same,glycan array binding signal (z-score),[2],-0.717
same,glycan array binding signal (z-score),[3],-0.376
same,glycan array binding signal (z-score),[4],-0.369
same,glycan array binding signal (z-score),[5],0.213
same,glycan array binding signal (z-score),[6],-0.099
same,glycan array binding signal (z-score),[7],-0.348
same,glycan array binding signal (z-score),[8],-0.347
same,glycan array binding signal (z-score),[9],0.012
same,glycan array binding signal (z-score),[10],-0.339
same,glycan array binding signal (z-score),[11],-0.326
same,glycan array binding signal (z-score),[12],0.613
same,glycan array binding signal (z-score),[13],0.813
same,glycan array binding signal (z-score),[14],-0.23
same,glycan array binding signal (z-score),[15],-0.047
same,glycan array binding signal (z-score),[16],-0.064
same,glycan array binding signal (z-score),[17],-0.131
same,glycan array binding signal (z-score),[18],-0.116
same,glycan array binding signal (z-score),[19],-0.182
same,glycan array binding signal (z-score),[20],-0.347
same,glycan array binding signal (z-score),[21],-0.116
same,glycan array binding signal (z-score),[22],-0.295
same,glycan array binding signal (z-score),[23],-0.212
same,glycan array binding signal (z-score),[24],-0.321
same,glycan array binding signal (z-score),[25],-0.325
same,glycan array binding signal (z-score),[26],-0.314
same,glycan array binding signal (z-score),[27],-0.185
same,glycan array binding signal (z-score),[28],-0.214
same,glycan array binding signal (z-score),[29],-0.008
same,glycan array binding signal (z-score),[30],-0.351
same,glycan array binding signal (z-score),[31],-0.374
same,glycan array binding signal (z-score),[32],-0.342
same,glycan array binding signal (z-score),[33],-0.341
same,glycan array binding signal (z-score),[34],0.027
same,glycan array binding signal (z-score),[35],0.131
same,glycan array binding signal (z-score),[36],-0.118
same,glycan array binding signal (z-score),[37],-0.213
same,glycan array binding signal (z-score),[38],-0.132
same,glycan array binding signal (z-score),[39],-0.144
same,glycan array binding signal (z-score),[40],0.337
same,glycan array binding signal (z-score),[41],-0.04
same,glycan array binding signal (z-score),[42],0.052
same,glycan array binding signal (z-score),[43],0.071
same,glycan array binding signal (z-score),[44],0.051
same,glycan array binding signal (z-score),[45],0.022

# Reference: the supplement of paper PMC8728848
